# PubChem BioAssay AID686979 (National Center for Advancing Translational Sciences (NCATS), 2013)
# About 50,000 (12%) of roughly 420,000 compounds were called active. The inconclusive results got no clear call from the source; some entries with a clear call stand among them for comparison. Calls follow the shape of the dose curve; as a rule, active = well fitted inhibition curve with a large enough effect; inconclusive = small, poorly fitted or top-dose-only effect; inactive = flat fitted curve, though single readings scatter. No potency is given beside an inconclusive call; the fits are too rough.
# Assay: qHTS for Inhibitors of human tyrosyl-DNA phosphodiesterase 1 (TDP1): qHTS in cells in presence of CPT; also: nearly all actives have a fitted effect of over 55% in size
# Conditions: chicken DT40 Tdp1-/-;hTDP1 cells + 20 nM CPT, ATP luminescence, 48 h; activity change, negative = growth inhibition: at 46.2 µM (top of the series) unless noted
# Outline: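 Chicken DT40 Tdp1-/- cells stably complemented with human TDP1 were seeded at 400 cells/well in medium containing 20 nM camptothecin, exposed to pin-transferred compounds, and grown at 37 °C for at least 48 hr. Viability was read as ATP luminescence.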
# % is scaled to controls: 0 for no effect and ±100 for the full control effect; potency is read from the fitted curve at half-maximal effect; tags tell the direction and shape of the fitted curve.
SMILES,Potency,"activity change, negative = growth inhibition"
COc1ccc(C2CC(=O)Nc3cc(C)c(C)cc32)c(OC)c1OC (stereo not given),"inconclusive [inhibitor, single point]",–
O=C(Nc1cc(C(F)(F)F)ccc1N1CCCCC1)c1cccc([N+](=O)[O-])c1,"inconclusive [inhibitor, single point]",–
CN(C)c1ccc2cc(S(=O)(=O)O)cc(O)c2c1,"inconclusive [inhibitor, single point]",–
CC(C)CN(C)C(=O)CCc1nnc(Cc2ccc(-c3ccccc3)cc2)o1,"inconclusive [inhibitor, single point]",–
Nc1nnc(SCC(=O)Nc2ccc(Cl)cc2)s1,inactive,–
O=C(CCOc1ccccc1)N(Cc1cccnc1)c1nc2c(F)cc(F)cc2s1,active: 18.4 µM,–
COc1ccc(C(=O)NCc2csc(-c3cccs3)n2)cc1,inactive,–
COc1ccccc1OCCSc1nc(-c2ccc(C(C)(C)C)cc2)nc2cc(=O)[nH]n12,active: 13 µM,–
Cc1ccc(CNC(=O)Cn2cc(S(=O)(=O)Cc3ccccc3Cl)c3ccccc32)cc1,active: 18.4 µM,–
COc1ccc(N2C(=O)CC(Sc3nc4ccccc4s3)C2=O)cc1OC (stereo not given),active: 4.61 µM,–
Cc1cc(C(=O)COc2ccc(-c3nnco3)cc2)c(C)n1Cc1ccccc1,"inconclusive [inhibitor, single point]",–
COc1ccc(NC(=O)CC2C(=O)N(Cc3ccccc3)C(=S)N2CCN2CCOCC2)cc1 (stereo not given),"inconclusive [inhibitor, single point]",–
CCOc1ccc(NC(=O)C(CC)n2c(=O)c(-c3ccccc3NC(C)=O)nc3ccccc32)cc1 (stereo not given),active: 18.4 µM,–
Cc1cc(Cl)ccc1NC(=O)c1cccc(NC(=O)N2CCSc3ncccc32)c1,"inconclusive [inhibitor, single point]",–
COc1cccc(S(=O)(=O)Nc2ccc3c(c2)C(=O)N(C)C[C@H](OC)[C@H](C)CN(Cc2ccccc2F)[C@@H](C)CO3)c1,active: 9.2 µM,–
NC(C(=O)O)C(CC(=O)O)c1ccc(Cl)cc1 (stereo not given),inactive,–
O=C(CSC1=Nc2ccccc2C2=NC(CCC(=O)NC3CCCCC3)C(=O)N12)Nc1cccc(C(F)(F)F)c1 (stereo not given),"inconclusive [inhibitor, single point]",–
Cc1noc(C)c1-c1cc(NC2CCNCC2)ncn1,"inconclusive [inhibitor, partial curve]",–
O=C(/C=C/c1ccc(-c2ccccc2)o1)c1ccccc1,"inconclusive [inhibitor, single point]",–
O=C(N/N=C/C(Cl)=C/c1ccc([N+](=O)[O-])cc1)C(=O)Nc1ccccc1C(=O)O,active: 5.17 µM,–
CCC1C(=O)NCCN1C(=O)c1cc(COc2cc(C)ccc2C)on1 (stereo not given),"inconclusive [inhibitor, partial curve]",–
COc1ccc(Cl)c2sc(N3CCN(C(=O)c4ccco4)CC3)nc12,"inconclusive [inhibitor, single point]",–
COc1cc(OC)c(NC(=O)N2CCSc3ccccc32)cc1Cl,"inconclusive [inhibitor, single point]",–

SMILES,Potency,"activity change, negative = growth inhibition"
COc1ccc(CNC(=O)c2cnc3sc(N4CCOCC4)nn3c2=O)cc1,inactive,–
CC1=C(C(=O)N2CCCCCC2)CC(CC(=O)NC2CCCCC2)C(=O)N1Cc1ccccc1 (stereo not given),"inconclusive [inhibitor, single point]",–
COCCN(CCOC)c1nc(-c2ccccc2)nc2ccccc12,"inconclusive [inhibitor, single point]",–
CCOC(CNC(=O)c1ccc2nc(N3CCC(C)CC3)sc2c1)OCC,"inconclusive [inhibitor, single point]",–
Cc1ccc(CCNC(=O)C2CCN(S(=O)(=O)c3ccc4nc5c(c(C(=O)O)c4c3)CCCC5)CC2)cc1,inactive,–
Fc1ccc(-n2ncc3c(NC4CCCCCC4)ncnc32)cc1,active: 23.1 µM,–
COc1cc2c(=O)n(Cc3ccccc3)c(=O)n(CC(=O)NCCc3ccccc3)c2cc1OC,active: 7.31 µM,–
Cc1ccc(NC2=C(Cl)C(=O)OC2OC(=O)c2ccco2)cc1 (stereo not given),"inconclusive [inhibitor, single point]",–
CCCC[C@@H]1CNC(=S)N1CCCC,"inconclusive [inhibitor, single point]",–
CCOC(=O)C1=C(c2ccccc2)ON(C)C1c1ccccc1 (stereo not given),"inconclusive [inhibitor, partial curve]",–
CCNC(=S)Nc1ccc(N(c2ccccc2)C(C)C)cc1,active: 25.9 µM,–
CCOC(=O)c1c(C)oc2nc(C)nc(NCCCN3CCN(c4ccccc4)CC3)c12,inactive,–
CC(C)C1C(=O)N(Cc2cn(CC3CCCCC3)nn2)CCS(=O)(=O)N1Cc1ccc(-c2ccc(Cl)cc2)cc1 (stereo not given),active: 9.2 µM,–
COc1cc(NS(C)(=O)=O)c(OC)cc1NC(=O)c1cccc(F)c1,inactive,–
CC(C)CNC(=S)NC(=O)c1ccc(Cl)cc1Cl,active: 13 µM,–
CC(=O)Oc1ccc2c(c1)O/C(=C\c1ccncc1)C2=O,–,inconclusive: -30.3% [inhibitor]
CCCCCCCC(=O)OCC(COC(=O)CCCCCCC)OC(=O)CCCCCCC,inactive,–
COc1cc(OC)c2c(-c3cccc(-c4ccc(C(C)=O)cc4)c3)cc(=O)oc2c1,active: 1.16 µM,–
CCOc1ccc(C(=O)N2CCC(c3nnc(-c4ccccc4OC)o3)CC2)cc1,"inconclusive [inhibitor, partial curve]",–
COc1ccccc1CNC(=O)c1ccc(Cn2c(SCc3ccccc3)nc3cccnc32)cc1,"inconclusive [inhibitor, single point]",–
CCOC(=O)c1c(CNCCN(CC)CC)n(C)c2cc(Br)c(OC)cc12,"inconclusive [inhibitor, single point]",–
CC1CN(S(=O)(=O)c2cccc(-c3csc(-c4ccccc4)n3)c2)CC(C)O1 (stereo not given),"inconclusive [inhibitor, single point]",–
